Source: paper PMC5681660, “Reduced hepatitis B and D viral entry using clinically applied drugs as novel inhibitors of the bile acid transporter NTCP” (Scientific Reports, 2017)
Counter-ions that a name gives are not always drawn.

Target: T1, human NTCP (Homo sapiens, UniProt Q14973)
T1 sequence (Q14973 1-349): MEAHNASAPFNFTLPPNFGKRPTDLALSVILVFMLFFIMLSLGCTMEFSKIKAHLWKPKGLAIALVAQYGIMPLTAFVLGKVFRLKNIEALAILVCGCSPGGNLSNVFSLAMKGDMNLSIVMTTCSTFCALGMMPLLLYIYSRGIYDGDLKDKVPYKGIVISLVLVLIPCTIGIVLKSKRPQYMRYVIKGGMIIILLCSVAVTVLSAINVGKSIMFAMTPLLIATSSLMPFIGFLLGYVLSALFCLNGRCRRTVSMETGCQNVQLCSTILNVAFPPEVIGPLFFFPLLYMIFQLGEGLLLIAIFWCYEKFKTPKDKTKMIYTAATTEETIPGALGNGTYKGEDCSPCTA
Experiment: Screening taurocholate uptake assay (96-well, [14C]taurocholate, 10 µM drug)
Details: 10 min, read-out: %NTCP activity

Row | SMILES | remaining activity at 10 µM [%]
1 | CN1[C@@H]2CC[C@H]1C[C@@H](OC(=O)c1c[nH]c3ccccc13)C2 [Tropisetron HCl] | 78.5
2 | CCN(CC)CCCC(C)Nc1ccnc2cc(Cl)ccc12 (centres unmarked) [Chloroquine diphosphate] | 90.9
3 | COc1ccc(C(Cl)=C(c2ccc(OC)cc2)c2ccc(OC)cc2)cc1 [Chlorotrianisene] | 92.9
4 | COc1ccc(C2CNC(=O)C2)cc1OC1CCCC1 (centres unmarked) [Rolipram] | 68.4
5 | OCCN1C[C@H](O)[C@@H](O)[C@H](O)[C@H]1CO [Miglitol] | 55.1
6 | CC1CCc2c(N3CCC(O)CC3)c(F)cc3c(=O)c(C(=O)O)cn1c23 (centres unmarked) [Nadifloxacin] | 113
7 | NS(=O)(=O)c1cc2c(cc1Cl)NC(C(Cl)Cl)NS2(=O)=O (centres unmarked) [Trichlormethiazide] | 111
8 | CC[N+](C)(CC)CCOC(=O)C1c2ccccc2Oc2ccccc21 [Methantheline bromide] | 83.1
9 | CC(NCCC(c1ccccc1)c1ccccc1)c1ccccc1 (centres unmarked) [Fendiline hydrochloride] | 113
10 | O=c1[nH]cc(F)c(=O)[nH]1 [5-fluorouracil] | 92.8
11 | Nc1ccc(C(=O)NCC(=O)O)cc1 [Aminohippuric acid] | 70.9
12 | NC(=O)CN1CCCC1=O [Piracetam] | 79.8
13 | Cc1cnc(C(=O)O)c[n+]1[O-] [Acipimox] | 135
14 | CCCCCCCCNC(C)C(O)c1ccc(SC(C)C)cc1 (centres unmarked) [Suloctidil] | 98.1
15 | C=CCN1CC[C@]23c4c5ccc(O)c4O[C@H]2C(=O)CC[C@@]3(O)[C@H]1C5 [Naloxone hydrochloride] | 35.5
16 | O=C1CCc2cc(OCCCCc3nnnn3C3CCCCC3)ccc2N1 [Cilostazol] | 108
17 | O=c1n(CCCN2CCN(c3cccc(Cl)c3)CC2)nc2ccccn12 [Trazodone hydrochloride] | 71.4
18 | CC1(C)NC(=O)N(c2ccc([N+](=O)[O-])c(C(F)(F)F)c2)C1=O [Nilutamide] | 103
19 | CC(C)(C)NC(=O)[C@H]1CC[C@H]2[C@@H]3CC[C@H]4NC(=O)C=C[C@]4(C)[C@H]3CC[C@]12C [Finasteride] | 118
20 | CC1(C)OC(=O)NC1=O [Dimethadione] | 104
21 | CN1CCN(C(c2ccccc2)c2ccc(Cl)cc2)CC1 (centres unmarked) [Chlorcyclizine hydrochloride] | 117
22 | CCCSc1ccc2nc(NC(=O)OC)[nH]c2c1 [Albendazole] | 37.4

Same assay, conditions: Prestwick library screen, 10 µM drug, [14C]taurocholate uptake

Row | SMILES | %NTCP activity [%]
23 | Cc1onc(-c2c(Cl)cccc2Cl)c1C(=O)N[C@@H]1C(=O)N2[C@@H]1SC(C)(C)[C@@H]2C(=O)[O-].O.[Na+] [Dicloxacillin sodium salt hydrate] | 37.3679
24 | CCN(CC)CCNC(=O)COc1ccc(OC)cc1.Cl [Mefexamide hydrochloride] | 118.598

Same assay, conditions: screen, 10 µM drug, [14C]taurocholate uptake

Row | SMILES | %NTCP activity [%]
25 | CCN(CCCc1ccccc1)CCCc1ccccc1.O=C(O)CC(O)(CC(=O)O)C(=O)O [Alverine citrate salt] | 58.4781
26 | CC(C)(C)NCC(O)c1cc(O)cc(O)c1.CC(C)(C)NCC(O)c1cc(O)cc(O)c1.O=S(=O)(O)O (centres unmarked) [Terbutaline hemisulfate] | 161.561
27 | CN(C)CCN(Cc1ccc(Cl)cc1)c1ccccn1.Cl [Chloropyramine hydrochloride] | 88.7618
28 | Cc1c(N(C)C)c(=O)n(-c2ccccc2)n1C [Amidopyrine] | 57.5072

Target: T1, human NTCP
Experiment: Screening fluorescent competitive Myrcludex B-FITC binding assay (96-well, 10 µM drug)
Details: 0.5 h, read-out: %NTCP binding

Row | SMILES | remaining activity at 10 µM [%]
29 | CN1[C@@H]2CC[C@H]1C[C@@H](OC(=O)c1c[nH]c3ccccc13)C2 [Tropisetron HCl] | 78.4
30 | CCN(CC)CCCC(C)Nc1ccnc2cc(Cl)ccc12 (centres unmarked) [Chloroquine diphosphate] | 76.7
31 | COc1ccc(C(Cl)=C(c2ccc(OC)cc2)c2ccc(OC)cc2)cc1 [Chlorotrianisene] | 92.8
32 | COc1ccc(C2CNC(=O)C2)cc1OC1CCCC1 (centres unmarked) [Rolipram] | 103
33 | OCCN1C[C@H](O)[C@@H](O)[C@H](O)[C@H]1CO [Miglitol] | 83.4
34 | CC1CCc2c(N3CCC(O)CC3)c(F)cc3c(=O)c(C(=O)O)cn1c23 (centres unmarked) [Nadifloxacin] | 98.2
35 | NS(=O)(=O)c1cc2c(cc1Cl)NC(C(Cl)Cl)NS2(=O)=O (centres unmarked) [Trichlormethiazide] | 109
36 | CC[N+](C)(CC)CCOC(=O)C1c2ccccc2Oc2ccccc21 [Methantheline bromide] | 110
37 | CC(NCCC(c1ccccc1)c1ccccc1)c1ccccc1 (centres unmarked) [Fendiline hydrochloride] | 72.1
38 | O=c1[nH]cc(F)c(=O)[nH]1 [5-fluorouracil] | 95.2
39 | Nc1ccc(C(=O)NCC(=O)O)cc1 [Aminohippuric acid] | 114
40 | Cc1cnc(C(=O)O)c[n+]1[O-] [Acipimox] | 82.9
41 | CCCCCCCCNC(C)C(O)c1ccc(SC(C)C)cc1 (centres unmarked) [Suloctidil] | 62.4
42 | C=CCN1CC[C@]23c4c5ccc(O)c4O[C@H]2C(=O)CC[C@@]3(O)[C@H]1C5 [Naloxone hydrochloride] | 90.1
43 | O=C1CCc2cc(OCCCCc3nnnn3C3CCCCC3)ccc2N1 [Cilostazol] | 83.5
44 | O=c1n(CCCN2CCN(c3cccc(Cl)c3)CC2)nc2ccccn12 [Trazodone hydrochloride] | 73.7
45 | CC1(C)NC(=O)N(c2ccc([N+](=O)[O-])c(C(F)(F)F)c2)C1=O [Nilutamide] | 88
46 | CC(C)(C)NC(=O)[C@H]1CC[C@H]2[C@@H]3CC[C@H]4NC(=O)C=C[C@]4(C)[C@H]3CC[C@]12C [Finasteride] | 82.8
47 | CC1(C)OC(=O)NC1=O [Dimethadione] | 104
48 | CN1CCN(C(c2ccccc2)c2ccc(Cl)cc2)CC1 (centres unmarked) [Chlorcyclizine hydrochloride] | 98.2
49 | CCCSc1ccc2nc(NC(=O)OC)[nH]c2c1 [Albendazole] | 86.6

Same assay, conditions: 0.5 h, read-out: %NTCP binding, Prestwick library screen, Myrcludex B-FITC binding, 10 µM drug

Row | SMILES | remaining activity at 10 µM [%]
50 | NC(=O)CN1CCCC1=O [Piracetam] | 78.2

Same assay, conditions: Prestwick library screen, 10 µM drug, Myrcludex B-FITC binding

Row | SMILES | %NTCP binding [%]
51 | Cc1onc(-c2c(Cl)cccc2Cl)c1C(=O)N[C@@H]1C(=O)N2[C@@H]1SC(C)(C)[C@@H]2C(=O)[O-].O.[Na+] [Dicloxacillin sodium salt hydrate] | 48.1821
52 | CCN(CC)CCNC(=O)COc1ccc(OC)cc1.Cl [Mefexamide hydrochloride] | 65.5109

Same assay, conditions: screen, 10 µM drug, Myrcludex B-FITC binding

Row | SMILES | %NTCP binding [%]
53 | CCN(CCCc1ccccc1)CCCc1ccccc1.O=C(O)CC(O)(CC(=O)O)C(=O)O [Alverine citrate salt] | 73.4904
54 | CC(C)(C)NCC(O)c1cc(O)cc(O)c1.CC(C)(C)NCC(O)c1cc(O)cc(O)c1.O=S(=O)(O)O (centres unmarked) [Terbutaline hemisulfate] | 53.337
55 | CN(C)CCN(Cc1ccc(Cl)cc1)c1ccccn1.Cl [Chloropyramine hydrochloride] | 111.615
56 | Cc1c(N(C)C)c(=O)n(-c2ccccc2)n1C [Amidopyrine] | 76.5515
